Measurements as given in the supplement of paper PMC12217912.
The list shows a part of the results. Sequences were assembled here from the parent chain. Inactive controls read about 0.05.

B1: TEV protease; numbered along this chain (parent)
chain: MGESLFKGPRDYNPISSSICHLTNESDGHTTSLYGIGFGPFIITNKHLFRRNNGTLVVQSLHGVFKVKDTTTLQQHLVDGRDMIIIRMPKDFPPFPQKLKFREPQREERICLVTTNFQTKSMSSMVSDTSCTFPSGDGIFWKHWIQTKDGQCGSPLVSTRDGFIVGIHSASNFTNTNNYFTSVPKNFMELLTNQEAQQWVSGWRLNADSVLWGGHKVFMVKPEEPFQPVKEATQL

Variants of: B1
Assay: raw area under fraction-flipped curve 0-4 h after induction (AUC4h, not background-subtracted), DNA-recorder readout of cleavage of the substrate (dimensionless); higher = more cleavage of the substrate by the protease variant
Conditions: temperature: 34 °C; time window: 0-4 h after rhamnose induction
Experimental: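 In vivo DNA recorder in E. coli TOP10(DE3) ΔrhaA at 34 °C. Each TEVp single-site mutant (parent TEVp 0) is paired with a single-site variant of the 7-mer TEVs (canonical ENLYFQ|S). The substrate sits between flexible linkers in a Bxb1-sfGFP-TEVs-SsrA fusion, so cleavage stabilises Bxb1 and speeds flipping of a recombination array, read by NGS. The value is the raw area under the fraction-flipped curve over 0-4 h after rhamnose induction (AUC4h), with ≥20 reads per time point. It is not background-subtracted; inactive controls average about 0.047.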
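Note: Bxb1 expression induced with 0.2% (w/v) L-rhamnose at OD600 near 0.5, cultures sampled hourly, flipped fraction per protease–substrate barcode pair counted by paired-end Illumina sequencing.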

| Variant | area with substrate EALYFQS | area with substrate ECLYFQS | area with substrate EDLYFQS | area with substrate EELYFQS | area with substrate EGLYFQS | area with substrate EHLYFQS | area with substrate EILYFQS | area with substrate EKLYFQS | area with substrate ELLYFQS | area with substrate EMLYFQS | area with substrate EQLYFQS | area with substrate ESLYFQS | area with substrate ETLYFQS | area with substrate EVLYFQS | area with substrate EYLYFQS | area with substrate EPLYFQS | area with substrate ERLYFQS | area with substrate EFLYFQS | area with substrate EWLYFQS |
| --- | --- | --- | --- | --- | --- | --- | --- | --- | --- | --- | --- | --- | --- | --- | --- | --- | --- | --- | --- |
| MGESLFKGPRDYNPISSSICHLTNESDGHTTSLYGIRFGPFIITNKHLFRRNNGTLVVQSLHGVFKVKDTTTLQQHLVDGRDMIIIRMPKDFPPFPQKLKFREPQREERICLVTTNFQTKSMSSMVSDTSCTFPSGDGIFWKHWIQTKDGQCGSPLVSTRDGFIVGIHSASNFTNTNNYFTSVPKNFMELLTNQEAQQWVSGWRLNADSVLWGGHKVFMVKPEEPFQPVKEATQL [G37R] | 0.0738 | 0.0694 | 0.0784 | 0.0818 | 0.0902 | 0.0736 | 0.0672 | 0.0758 | 0.073 | 0.0805 | 0.0807 | 0.0652 | 0.0896 | 0.0732 | 0.0692 | – | – | – | – |
| MGESLFKGPRDYNPISSSICHLTNESDGYTTSLYGIGFGPFIITNKHLFRRNNGTLVVQSLHGVFKVKDTTTLQQHLVDGRDMIIIRMPKDFPPFPQKLKFREPQREERICLVTTNFQTKSMSSMVSDTSCTFPSGDGIFWKHWIQTKDGQCGSPLVSTRDGFIVGIHSASNFTNTNNYFTSVPKNFMELLTNQEAQQWVSGWRLNADSVLWGGHKVFMVKPEEPFQPVKEATQL [H29Y] | 0.136 | 0.113 | – | 0.157 | 0.104 | 0.115 | 0.0852 | 0.123 | 0.111 | 0.127 | 0.105 | 0.118 | 0.113 | 0.105 | – | 0.15 | 0.114 | – | – |
| MGESLFKGPRDYNPISSSICHLTNESDGWTTSLYGIGFGPFIITNKHLFRRNNGTLVVQSLHGVFKVKDTTTLQQHLVDGRDMIIIRMPKDFPPFPQKLKFREPQREERICLVTTNFQTKSMSSMVSDTSCTFPSGDGIFWKHWIQTKDGQCGSPLVSTRDGFIVGIHSASNFTNTNNYFTSVPKNFMELLTNQEAQQWVSGWRLNADSVLWGGHKVFMVKPEEPFQPVKEATQL [H29W] | 0.114 | 0.104 | – | 0.0986 | 0.115 | 0.0876 | 0.0978 | 0.144 | 0.0872 | 0.111 | 0.112 | 0.118 | 0.104 | 0.103 | 0.124 | – | 0.11 | 0.106 | 0.0979 |
| MGESLFKGPRDYNPISSSICHLTNESDGQTTSLYGIGFGPFIITNKHLFRRNNGTLVVQSLHGVFKVKDTTTLQQHLVDGRDMIIIRMPKDFPPFPQKLKFREPQREERICLVTTNFQTKSMSSMVSDTSCTFPSGDGIFWKHWIQTKDGQCGSPLVSTRDGFIVGIHSASNFTNTNNYFTSVPKNFMELLTNQEAQQWVSGWRLNADSVLWGGHKVFMVKPEEPFQPVKEATQL [H29Q] | 0.0999 | 0.115 | – | 0.0899 | – | 0.0917 | 0.101 | – | 0.0895 | – | 0.13 | 0.117 | 0.118 | 0.112 | – | 0.103 | – | 0.0805 | – |
| MGESLFKGPRDYNPISSSICHLTNESDGHTTSLYGIGFDPFIITNKHLFRRNNGTLVVQSLHGVFKVKDTTTLQQHLVDGRDMIIIRMPKDFPPFPQKLKFREPQREERICLVTTNFQTKSMSSMVSDTSCTFPSGDGIFWKHWIQTKDGQCGSPLVSTRDGFIVGIHSASNFTNTNNYFTSVPKNFMELLTNQEAQQWVSGWRLNADSVLWGGHKVFMVKPEEPFQPVKEATQL [G39D] | 0.0265 | 0.0431 | 0.0475 | – | – | 0.0458 | 0.0464 | 0.0352 | 0.0752 | – | 0.0509 | 0.0471 | 0.0444 | – | – | 0.0453 | 0.0527 | 0.0593 | 0.0712 |
| MGESLFKGPRDYNPISSSICHLTNESDGHTTSFYGIGFGPFIITNKHLFRRNNGTLVVQSLHGVFKVKDTTTLQQHLVDGRDMIIIRMPKDFPPFPQKLKFREPQREERICLVTTNFQTKSMSSMVSDTSCTFPSGDGIFWKHWIQTKDGQCGSPLVSTRDGFIVGIHSASNFTNTNNYFTSVPKNFMELLTNQEAQQWVSGWRLNADSVLWGGHKVFMVKPEEPFQPVKEATQL [L33F] | 0.0565 | 0.0679 | – | 0.053 | 0.0669 | 0.0536 | 0.0639 | 0.0494 | 0.0617 | 0.0698 | 0.0646 | 0.0608 | 0.0608 | 0.0544 | – | 0.0632 | 0.0383 | – | 0.059 |
| MGESLFKGPRDYNPISSSICHLTNESDGHTTSQYGIGFGPFIITNKHLFRRNNGTLVVQSLHGVFKVKDTTTLQQHLVDGRDMIIIRMPKDFPPFPQKLKFREPQREERICLVTTNFQTKSMSSMVSDTSCTFPSGDGIFWKHWIQTKDGQCGSPLVSTRDGFIVGIHSASNFTNTNNYFTSVPKNFMELLTNQEAQQWVSGWRLNADSVLWGGHKVFMVKPEEPFQPVKEATQL [L33Q] | 0.0852 | 0.0702 | 0.132 | 0.0541 | – | – | – | 0.0736 | 0.0698 | 0.0612 | 0.0883 | 0.0897 | 0.108 | 0.0779 | – | 0.0905 | – | – | 0.0912 |
| MGESLFKGPRDYNPISSSICHLTNESDGHTTSVYGIGFGPFIITNKHLFRRNNGTLVVQSLHGVFKVKDTTTLQQHLVDGRDMIIIRMPKDFPPFPQKLKFREPQREERICLVTTNFQTKSMSSMVSDTSCTFPSGDGIFWKHWIQTKDGQCGSPLVSTRDGFIVGIHSASNFTNTNNYFTSVPKNFMELLTNQEAQQWVSGWRLNADSVLWGGHKVFMVKPEEPFQPVKEATQL [L33V] | 0.105 | 0.078 | – | 0.102 | 0.116 | 0.0892 | – | 0.0638 | 0.0984 | 0.115 | 0.119 | 0.0857 | 0.107 | – | 0.152 | 0.0927 | – | 0.103 | – |
| MGESLFKGPRDYNPISSSICHLTNESDGHTTSLCGIGFGPFIITNKHLFRRNNGTLVVQSLHGVFKVKDTTTLQQHLVDGRDMIIIRMPKDFPPFPQKLKFREPQREERICLVTTNFQTKSMSSMVSDTSCTFPSGDGIFWKHWIQTKDGQCGSPLVSTRDGFIVGIHSASNFTNTNNYFTSVPKNFMELLTNQEAQQWVSGWRLNADSVLWGGHKVFMVKPEEPFQPVKEATQL [Y34C] | 0.103 | 0.0954 | 0.116 | – | 0.0786 | 0.111 | 0.0725 | 0.106 | – | 0.103 | 0.112 | 0.0795 | 0.117 | 0.0938 | – | 0.119 | 0.0737 | 0.101 | 0.117 |
